# In PubChem BioAssay AID504845 (National Center for Advancing Translational Sciences (NCATS), 2011):
# The whole screen tested about 390,000 compounds, of which about 150 (0.038%) were called active. Inconclusive means that the source gave no clear call. Such entries were picked first, then a sample of the others. Calls follow the shape of the dose curve; as a rule, active = well fitted inhibition curve with a large enough effect; inconclusive = small, poorly fitted or top-dose-only effect; inactive = no such curve, though single readings can be large or run the other way. Potencies of inconclusive entries are doubtful fits and often do not repeat.
# Molecular target: Regulator of G-protein signaling 4 (Homo sapiens) (UniProt P49798)
# Test: Inhibitors of Regulator of G Protein Signaling (RGS) 4: qHTS; also: nearly all actives have a fitted effect of over 75% in size
# Conditions: Transcreener GDP fluorescence polarization, RGS4-accelerated GTP hydrolysis; series mostly up to 114 µM
# In short: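 MLSMR compounds (23 nl, pin-transferred) preincubated 10 min at room temperature with a 500nM (2x) first reagent, then RGS4 at 900nM (2x) plus Transcreener GDP mix added; fluorescence polarization (620/688 nm) read before and after 90 min at 30 °C.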
# Potency is read from the fitted curve at half-maximal effect; tags tell the direction and shape of the fitted curve.
# Chain of UniProt P49798 (P49798 whole entry, looked up): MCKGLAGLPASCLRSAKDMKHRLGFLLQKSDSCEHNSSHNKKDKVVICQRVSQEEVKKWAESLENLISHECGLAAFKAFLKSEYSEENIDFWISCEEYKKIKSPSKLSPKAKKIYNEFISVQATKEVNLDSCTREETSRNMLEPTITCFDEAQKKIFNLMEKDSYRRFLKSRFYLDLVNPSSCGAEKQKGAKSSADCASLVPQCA
row,Structure (SMILES),Potency
1,O=C(NCCc1ccc(Cl)cc1)C1CCN(S(=O)(=O)c2ccc(-n3cnnn3)cc2)CC1,"inconclusive: 89.1 µM [inhibitor, partial curve, poor fit]"
2,CCN(CC(=O)Nc1cc(Cl)ccc1C)C(=O)c1cc(S(=O)(=O)N2CCCCCC2)ccc1OC,"inconclusive: 79.4 µM [inhibitor, single point]"
3,O=C(CNC(=O)c1ccc([N+](=O)[O-])cc1)N/N=C\c1ccc(OC(=O)c2ccccc2)cc1,"inconclusive: 50.1 µM [inhibitor, partial curve, poor fit]"
4,Nc1cc(N)nc(SCC(=O)NCC(=O)Nc2ccc(F)c(F)c2F)n1,inactive
5,CCOC(=O)N1CCN(C(=O)Nc2ccc3oc(C)nc3c2)CC1,"inconclusive: 31.6 µM [inhibitor, full curve, poor fit]"
6,CCOc1ccc(C2=CSC3=NCCN23)cc1Cl,"inconclusive: 79.4 µM [inhibitor, partial curve, poor fit]"
7,C=CCSC1=C(C#N)C(c2ccc(C(C)C)cc2)CC(=O)N1 (stereo not given),"inconclusive: 50.1 µM [inhibitor, partial curve, poor fit]"
8,COc1ccc(CC(=O)N(C)CC(=O)Nc2ccccc2C(F)(F)F)cc1S(=O)(=O)N1CCOCC1,"inconclusive: 89.1 µM [inhibitor, single point]"
9,Cc1ccc(-c2n[nH]c(=S)n2/N=C/C=C\c2ccccc2[N+](=O)[O-])cc1,"inconclusive: 56.2 µM [inhibitor, partial curve, poor fit]"
10,CC(=O)c1ccc(OC(=O)CCc2nc3ccccc3s2)cc1,"inconclusive: 44.7 µM [inhibitor, partial curve, poor fit]"
11,COC(=O)C1=C(C)NC(=S)NC1c1ccc(-c2cc(Cl)ccc2Cl)o1 (stereo not given),"inconclusive: 31.6 µM [inhibitor, full curve, poor fit]"
12,NC(=S)N/N=C/c1ccc(-c2ccc(SC(F)F)cc2)o1,"inconclusive: 50.1 µM [inhibitor, partial curve, poor fit]"
13,O=C(CCS(=O)(=O)c1ccc(F)cc1)Nc1ccc(N2CCN(Cc3ccccc3)CC2)cc1,"inconclusive: 100 µM [inhibitor, single point]"
14,COc1ccc(CC(=O)N(C)CC(=O)Nc2ccccc2SC)cc1,"inconclusive: 39.8 µM [inhibitor, partial curve, poor fit]"
15,COc1ccc(-c2csc3ncnc(N4CCN(C(=O)c5ccco5)CC4)c23)cc1,"inconclusive: 50.1 µM [inhibitor, partial curve, poor fit]"
16,O=C(Cc1ccc(Cl)cc1)N/N=C/c1cccc(O)c1,inactive
17,COc1ccc(S(=O)(=O)N(C)C)cc1NC(=O)CSc1ncccn1,"inconclusive: 39.8 µM [inhibitor, partial curve, poor fit]"
18,CCN1C(=O)[C@@H]2[C@@H](c3ccc(-c4ccc(OC)cc4)c(OC)c3)N3CCCC[C@@]3(C(=O)OC)[C@@H]2C1=O,inactive
19,O=C1C(=O)N(C2CCN(C(=O)c3cccc(Cl)c3)CC2)CCN1Cc1ccc(F)cc1,inactive
20,O=C(/C=C/c1cccs1)NC(=S)NNC(=O)c1ccccc1O,inactive
21,Oc1cc2c(cc1O)C1c3ccc(O)c(O)c3OCC1(O)C2 (stereo not given),"inconclusive: 39.8 µM [inhibitor, partial curve, poor fit]"
22,CCOC(=O)Cn1cc(/C=C/[N+](=O)[O-])c2ccccc21,"inconclusive: 44.7 µM [inhibitor, partial curve, poor fit]"

row,Structure (SMILES),Potency
1,Cc1cc(Oc2ccc(Cl)cc2)nc(-c2ccccn2)n1,inactive
2,COC(=O)c1cc(-c2ccc(OC)cc2)n[nH]1,inactive
3,CCN1CCN(c2oc(COc3ccc(-c4ccccc4)cc3)nc2C#N)CC1,"inconclusive: 89.1 µM [inhibitor, single point]"
4,O=C(COC(=O)Cn1cnc2ccccc21)Nc1cc2c(cc1Cl)C(=O)c1ccccc1C2=O,inactive
5,Cc1ccc2sc(C)[n+](CCC(C)S(=O)(=O)[O-])c2c1 (stereo not given),"inconclusive: 50.1 µM [inhibitor, partial curve, poor fit]"
6,O=C(Cn1c[n+](CC(=O)c2ccc([N+](=O)[O-])cc2)cn1)c1ccc([N+](=O)[O-])cc1,"inconclusive: 44.7 µM [inhibitor, partial curve, poor fit]"
7,O=C(NCc1ccco1)c1cccnc1Cl,inactive
8,CCc1ccc2nc(N(CCN(C)C)C(=O)c3ccc4ncsc4c3)sc2c1,"inconclusive: 44.7 µM [inhibitor, partial curve, poor fit]"
9,O=c1cc(CO)oc(C(Nc2ccccn2)c2cccc(F)c2)c1O (stereo not given),"inconclusive: 31.6 µM [inhibitor, full curve, poor fit]"
10,COc1ccc(NC(=O)c2c(NCc3cccc(OC)c3)sc3c2CCC3)cc1,"inconclusive: 44.7 µM [inhibitor, partial curve, poor fit]"
11,CN(C)C(=O)c1cn(-c2ccccc2)nc1-c1cc2ccccc2oc1=O,inactive
12,Cc1cccc(C)c1NC(=O)CSCC(=O)c1ccc(O)c(O)c1,"inconclusive: 50.1 µM [inhibitor, partial curve, poor fit]"
13,COc1ccc(/C=C2\SC(=S)N(CC(=O)NC3CCS(=O)(=O)C3)C2=O)cc1 (stereo not given),"inconclusive: 89.1 µM [inhibitor, single point]"
14,CC1(C)S[C@@H]2[C@H](NC(=O)[C@H](N)c3ccccc3)C(=O)N2[C@H]1C(=O)OC1OC(=O)c2ccccc21 (stereo not given in full),inactive
15,O=C(CSc1ccccn1)c1ccc2c(c1)OCO2,inactive
16,CCOc1nc(NC2CCCC2)nc(N2CCC(C)CC2)n1,"inconclusive: 56.2 µM [inhibitor, partial curve, poor fit]"
17,CC(=O)c1c(OC(=O)c2cccc(Cl)c2)c2ccccc2n1C,"inconclusive: 56.2 µM [inhibitor, partial curve, poor fit]"
18,CC1(C)CC(=O)C(C(c2ccc(Br)cc2)C2C(=O)CC(C)(C)CC2=O)C(=O)C1,"inconclusive: 79.4 µM [inhibitor, partial curve, poor fit]"
19,CCOc1ccc(C(=O)Nc2cccc(-c3cc4ccccc4oc3=O)c2)cc1[N+](=O)[O-],"inconclusive: 50.1 µM [inhibitor, partial curve, poor fit]"
20,CCc1ccccc1NC(=O)CSc1nc2c(oc3ccccc32)c(=O)n1-c1ccccc1,inactive
21,CCC1CCCCN1CCCNC(=O)c1cc2c(Cl)nc3ccc(C)cc3c2s1 (stereo not given),"inconclusive: 17.8 µM [inhibitor, full curve, poor fit]"
22,COC(=O)CC/C(O)=C1\C(=O)CC(C)(C)CC1=NCCc1nc2ccccc2[nH]1,"inconclusive: 20 µM [inhibitor, full curve, poor fit]"

row,Structure (SMILES),Potency
1,S=c1[nH]nc(Nc2ccccc2Cl)s1,"inconclusive: 17.8 µM [inhibitor, full curve, poor fit]"
2,CC(Oc1ccc2ccccc2c1)C(=O)NNC(=O)Nc1ccccc1 (stereo not given),"inconclusive: 100 µM [inhibitor, single point]"
3,CCCC(=O)Nc1ccc2nn(-c3ccc(CC)cc3)nc2c1,inactive
4,Cc1cccc(-n2c3nc(=O)[nH]c(=O)c-3cc3cc([N+](=O)[O-])ccc32)c1,inactive
5,CC(C)Cn1c(N)c(C(=O)COC(=O)c2ccc(Cl)cc2)c(=O)n(C)c1=O,inactive
6,CC1(C)CC(=O)c2cc(-c3nc(-c4ccc(Br)cc4)cs3)c(=O)n(-c3ccccc3)c2C1,inactive
7,CC(=O)c1ccc(N2CCN(c3ncc(C(F)(F)F)cc3Cl)CC2)cc1,"inconclusive: 70.8 µM [inhibitor, single point]"
8,NC(=O)c1cc(N2C(=O)C=CC2=O)ccc1Cl,"inconclusive: 39.8 µM [inhibitor, full curve, poor fit]"
9,COCCCNC(=S)NNC(=S)Nc1ccccc1,"inconclusive: 35.5 µM [inhibitor, full curve, poor fit]"
10,O=C(c1ccco1)N1CCN(Cc2csc(-c3ccccc3Cl)n2)CC1,"inconclusive: 79.4 µM [inhibitor, single point]"
11,O=C(Cc1ccccc1)NC1CC(=O)N(c2ccc3c(c2)OCCO3)C1 (stereo not given),inactive
12,NCCS,"inconclusive: 7.52 µM [inhibitor, full curve]"
13,S=c1[nH]nc(-c2ccc(Br)cc2)n1Cc1ccccc1,"inconclusive: 31.6 µM [inhibitor, full curve, poor fit]"
14,COCCCNC(=O)c1ccc(N(C)S(C)(=O)=O)cc1,inactive
15,CSc1ccc(CCNC(=O)CS(=O)(=O)Cc2nc(-c3ccccc3F)oc2C)cc1,"inconclusive: 100 µM [inhibitor, single point]"
16,COC(=O)c1cc(C)nc2c1C(=O)C(=O)C=C2N1CCOCC1,inactive
17,O=S(=O)(c1ccc2c(c1)OCCO2)N1CCN(Cc2ccc3c(c2)OCO3)CC1,inactive
18,Cc1ccc(C(=O)/C=C/c2cn(CC(O)CN3CCc4ccccc43)c3ccccc23)cc1 (stereo not given),"inconclusive: 89.1 µM [inhibitor, single point]"
19,O=C(CN1C(=O)/C(=C2/SC(=S)N(CCS(=O)(=O)O)C2=O)c2ccccc21)Nc1cccc(C(F)(F)F)c1,"inconclusive: 31.6 µM [inhibitor, full curve, poor fit]"
20,O=C(NCc1ccc(Cl)cc1)C(=O)NCC(c1ccco1)N1CCOCC1 (stereo not given),inactive
21,COc1ccc(-c2csc(NC(=O)C3CC(=O)N(Cc4ccco4)C3)n2)cc1 (stereo not given),"inconclusive: 50.1 µM [inhibitor, partial curve, poor fit]"
